# Measured values from the supplement of paper PMC8728848.
# Some of the results follow.
# How the values were obtained:
# Experiment in all cases: glycan array binding signal (z-score within array); higher = stronger binding
# Conditions in all cases: glycan notation: IUPAC condensed, linker removed
# [1] = target: Man(a1-3)[Man(a1-6)]Man(a1-6)[Man(a1-2)Man(a1-3)]Man(b1-4)GlcNAc(b1-4)GlcNAc
# Summary of the method: (§1)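 From the Consortium for Functional Glycomics database, 3228 arrays were curated, keeping only those whose protein sequence was available. Binding is given as a within-array Z-score averaged across arrays sharing a protein sequence and across linkers. Negative Z-scores can be read as non-binding.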
# [2] = target: Man(a1-3)[Man(a1-6)]Man(a1-6)[Man(a1-3)]Man
# Summary of the method: as §1
# [3] = target: Man(a1-3)[Man(a1-6)]Man(a1-6)[Man(a1-3)]Man(b1-4)GlcNAc(b1-4)GlcNAc
# Summary of the method: as §1
# [4] = target: Man(a1-3)[Man(a1-6)]Man(b1-4)GlcNAc(b1-4)GlcNAc
# Summary of the method: as §1
# Man(a1-6)Man = target: Man(a1-6)Man
# Summary of the method: as §1
# Man(b1-4)GlcNAc = target: Man(b1-4)GlcNAc
# Summary of the method: as §1
# Neu5Ac(a2-3)Gal = target: Neu5Ac(a2-3)Gal
# Summary of the method: as §1
# [5] = target: Neu5Ac(a2-3)Gal(b1-3)GalNAc
# Summary of the method: as §1
# [6] = target: Neu5Ac(a2-3)Gal(b1-3)GalNAc(b1-3)Gal(a1-4)Gal(b1-4)Glc
# Summary of the method: as §1
# [7] = target: Neu5Ac(a2-3)Gal(b1-3)GalNAc(b1-3)Gal(b1-4)GlcNAc
# Summary of the method: as §1
# [8] = target: Neu5Ac(a2-3)Gal(b1-3)GalNAc(b1-4)[Neu5Ac(a2-3)]Gal(b1-4)Glc
# Summary of the method: as §1
# [9] = target: Neu5Ac(a2-3)Gal(b1-3)GalNAc6S
# Summary of the method: as §1
# [10] = target: Neu5Ac(a2-3)Gal(b1-3)GlcNAc
# Summary of the method: as §1
# [11] = target: Neu5Ac(a2-3)Gal(b1-3)GlcNAc(b1-3)Gal(b1-3)GlcNAc
# Summary of the method: as §1
# [12] = target: Neu5Ac(a2-3)Gal(b1-3)GlcNAc6S
# Summary of the method: as §1
# [13] = target: Neu5Ac(a2-3)Gal(b1-3)[Fuc(a1-4)]GlcNAc
# Summary of the method: as §1
# [14] = target: Neu5Ac(a2-3)Gal(b1-3)[Fuc(a1-4)]GlcNAc(b1-3)Gal(b1-4)[Fuc(a1-3)]GlcNAc
# Summary of the method: as §1
# [15] = target: Neu5Ac(a2-3)Gal(b1-3)[Neu5Ac(a2-3)Gal(b1-4)]GlcNAc
# Summary of the method: as §1
# [16] = target: Neu5Ac(a2-3)Gal(b1-3)[Neu5Ac(a2-6)]GalNAc
# Summary of the method: as §1
# Neu5Ac(a2-3)Gal(b1-4)Glc = target: Neu5Ac(a2-3)Gal(b1-4)Glc
# Summary of the method: as §1
# [17] = target: Neu5Ac(a2-3)Gal(b1-4)GlcNAc
# Summary of the method: as §1
# [18] = target: Neu5Ac(a2-3)Gal(b1-4)GlcNAc(b1-2)Man(a1-3)[GlcNAc(b1-2)Man(b1-4)GlcNAc(b1-2)Man(a1-6)]Man(b1-4)GlcNAc(b1-4)GlcNAc
# Summary of the method: as §1
# [19] = target: Neu5Ac(a2-3)Gal(b1-4)GlcNAc(b1-2)Man(a1-3)[Neu5Ac(a2-6)Gal(b1-4)GlcNAc(b1-2)Man(a1-6)]Man(b1-4)GlcNAc(b1-4)GlcNAc
# Summary of the method: as §1
# [20] = target: Neu5Ac(a2-3)Gal(b1-4)GlcNAc(b1-3)Gal(b1-3)GlcNAc
# Summary of the method: as §1
# [21] = target: Neu5Ac(a2-3)Gal(b1-4)GlcNAc(b1-3)Gal(b1-4)GlcNAc
# Summary of the method: as §1
# [22] = target: Neu5Ac(a2-3)Gal(b1-4)GlcNAc(b1-3)Gal(b1-4)GlcNAc(b1-3)Gal(b1-4)GlcNAc
# Summary of the method: as §1
# [23] = target: Neu5Ac(a2-3)Gal(b1-4)GlcNAc(b1-3)Gal(b1-4)[Fuc(a1-3)]GlcNAc
# Summary of the method: as §1
# [24] = target: Neu5Ac(a2-3)Gal(b1-4)GlcNAc(b1-6)[Gal(b1-3)]GalNAc
# Summary of the method: as §1
# [25] = target: Neu5Ac(a2-3)Gal(b1-4)GlcNAc(b1-6)[Neu5Ac(a2-3)Gal(b1-3)]GalNAc
# Summary of the method: as §1
# [26] = target: Neu5Ac(a2-3)Gal(b1-4)GlcNAc6S
# Summary of the method: as §1
# [27] = target: Neu5Ac(a2-3)Gal(b1-4)[Fuc(a1-3)]GlcNAc
# Summary of the method: as §1
# [28] = target: Neu5Ac(a2-3)Gal(b1-4)[Fuc(a1-3)]GlcNAc(b1-3)Gal
# Summary of the method: as §1
# [29] = target: Neu5Ac(a2-3)Gal(b1-4)[Fuc(a1-3)]GlcNAc(b1-3)Gal(b1-4)GlcNAc
# Summary of the method: as §1
# [30] = target: Neu5Ac(a2-3)Gal(b1-4)[Fuc(a1-3)]GlcNAc(b1-3)Gal(b1-4)[Fuc(a1-3)]GlcNAc(b1-3)Gal(b1-4)[Fuc(a1-3)]GlcNAc
# Summary of the method: as §1
# [31] = target: Neu5Ac(a2-3)Gal(b1-4)[Fuc(a1-3)]GlcNAc(b1-6)[Gal(b1-3)]GalNAc
# Summary of the method: as §1
# [32] = target: Neu5Ac(a2-3)Gal(b1-4)[Fuc(a1-3)]GlcNAc6S
# Summary of the method: as §1
# [33] = target: Neu5Ac(a2-3)Gal6S(b1-4)GlcNAc
# Summary of the method: as §1
binder,measurement,setting,value
Surfactant Protein D (rat); Neck + Carbohydrate Recognition Domain (NCRD) (Rattus norvegicus) (protein) MLLFLLSALVLLTQPLGYLEAEMKTYSHRTMPSACTLVMCSSVESGLPGRDGRDGREGPRGEKGDPGLPGAAGQAGMPGQAGPVGPKGDNGSVGEPGPKGDTGPSGPPGPPGVPGPAGREGALGKQGNIGPQGKPGPKGEAGPKGEVGAPGMQGSAGARGAGPKGERGVPGERGVPGNTGAAGSAGAMGPQGSPGARGPPGLKGDKGIPGDKGAKGESGLPDVASLRQQVEALQGQVQHLQAAFSQYKKVELFPNGQSVGEKIFKTAGFVKPFTEAQLLCTQAGGQLASPRSAAENAALQQLVVAKNEAAFLSMTDSKTEGKFTYPTGESLVYSNWAPGEPNDDGGSEDCVEIFTNGKWNDRACGEKRLVVCEF,glycan array binding signal (z-score),[1],1.23
same,glycan array binding signal (z-score),[2],-0.175
same,glycan array binding signal (z-score),[3],-0.158
same,glycan array binding signal (z-score),[4],-0.231
same,glycan array binding signal (z-score),Man(a1-6)Man,-0.223
same,glycan array binding signal (z-score),Man(b1-4)GlcNAc,-0.204
same,glycan array binding signal (z-score),Neu5Ac(a2-3)Gal,-0.129
same,glycan array binding signal (z-score),[5],-0.162
same,glycan array binding signal (z-score),[6],-0.176
same,glycan array binding signal (z-score),[7],-0.198
same,glycan array binding signal (z-score),[8],0.15
same,glycan array binding signal (z-score),[9],0.035
same,glycan array binding signal (z-score),[10],-0.208
same,glycan array binding signal (z-score),[11],-0.118
same,glycan array binding signal (z-score),[12],0.022
same,glycan array binding signal (z-score),[13],-0.113
same,glycan array binding signal (z-score),[14],-0.098
same,glycan array binding signal (z-score),[15],-0.096
same,glycan array binding signal (z-score),[16],-0.014
same,glycan array binding signal (z-score),Neu5Ac(a2-3)Gal(b1-4)Glc,-0.191
same,glycan array binding signal (z-score),[17],-0.106
same,glycan array binding signal (z-score),[18],-0.151
same,glycan array binding signal (z-score),[19],-0.117
same,glycan array binding signal (z-score),[20],-0.177
same,glycan array binding signal (z-score),[21],-0.224
same,glycan array binding signal (z-score),[22],-0.14
same,glycan array binding signal (z-score),[23],-0.107
same,glycan array binding signal (z-score),[24],0.011
same,glycan array binding signal (z-score),[25],-0.239
same,glycan array binding signal (z-score),[26],-0.21
same,glycan array binding signal (z-score),[27],0.004
same,glycan array binding signal (z-score),[28],-0.103
same,glycan array binding signal (z-score),[29],-0.098
same,glycan array binding signal (z-score),[30],-0.165
same,glycan array binding signal (z-score),[31],-0.091
same,glycan array binding signal (z-score),[32],-0.104
same,glycan array binding signal (z-score),[33],0.006
